Structures are written as SMILES. Among all 45,000 compounds or so, about 65 (0.1%) were called active. Calls come from the whole dose curve; as a rule, active = well fitted activation curve with a large enough effect; inconclusive = small, poorly fitted or top-dose-only effect; inactive = no such curve, though single readings can be large or run the other way. Some of the results follow.

Chain of UniProt P54803 (P54803 whole entry, looked up): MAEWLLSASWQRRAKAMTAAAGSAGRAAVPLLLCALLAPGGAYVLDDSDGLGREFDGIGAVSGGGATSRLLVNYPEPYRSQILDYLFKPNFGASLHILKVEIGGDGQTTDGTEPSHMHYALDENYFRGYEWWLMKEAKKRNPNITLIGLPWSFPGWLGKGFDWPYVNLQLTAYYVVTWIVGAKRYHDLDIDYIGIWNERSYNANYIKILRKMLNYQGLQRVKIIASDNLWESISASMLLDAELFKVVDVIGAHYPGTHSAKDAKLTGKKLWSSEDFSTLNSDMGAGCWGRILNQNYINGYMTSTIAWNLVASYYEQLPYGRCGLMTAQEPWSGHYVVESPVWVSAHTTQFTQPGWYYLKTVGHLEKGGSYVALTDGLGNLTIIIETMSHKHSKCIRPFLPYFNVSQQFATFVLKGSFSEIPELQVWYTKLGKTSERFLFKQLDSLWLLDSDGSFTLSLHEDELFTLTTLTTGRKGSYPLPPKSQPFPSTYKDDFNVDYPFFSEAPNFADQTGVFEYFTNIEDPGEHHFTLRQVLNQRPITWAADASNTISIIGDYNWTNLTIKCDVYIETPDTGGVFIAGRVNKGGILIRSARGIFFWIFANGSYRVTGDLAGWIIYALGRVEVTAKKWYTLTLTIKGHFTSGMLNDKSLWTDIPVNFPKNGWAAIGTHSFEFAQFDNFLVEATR

This experiment deals with Galactocerebrosidase (Homo sapiens) (UniProt P54803). As to the kind of experiment: A Novel Cell-Based Assay to Identify Small Molecules for B -Galactocerebrosidase. Note: 0% is about no effect; nearly all actives have a fitted effect of over 65% in size. The note with it: 145M-Twi-hGALC-G270D cells (Twitcher mouse brain line with human GALC G270D), HMU-beta-Gal fluorescence, 48 h; series mostly up to 57.5 µM; activation: at the top concentration. The method, boiled down:
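Fluorogenic HMU-b-Gal hydrolysis (0.1 mM final, pH 5.2 citrate-phosphate with 1 mg/mL sodium taurocholate; carbonate stop buffer) measures mutant GALC activity after compound treatment of live 145M-Twi Twitcher brain cells stably carrying human GALC-G270D, with wild-type GALC line alongside; activation sought.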
As for `Cc1ccc2nc(-c3ccc(F)cc3)c(NC(C)(C)CC(C)(C)C)n2c1`, the “activation” value is inactive: -31.9%.
The result for `Cc1c(Cl)cccc1NC(=O)CSc1ccc(-c2ccccn2)nn1` reads inactive: 5.09%; that for `CS(=O)(=O)c1ccc([C@@H](O)[C@@H](CF)NC(=O)C(Cl)Cl)cc1`, inactive: -8.22%.
As for `Cc1ccc(C)c(NC(=O)CCOc2ccccc2)c1`, the “activation” value was inactive: -3.56%.
`COc1ccc(C)cc1NC(=O)C(=O)NCC(c1cccnc1)N1CCN(c2ccccc2F)CC1` (configuration not stated): the “activation” value is inactive: -0.758%.
With `O=C(NCc1cccc(Cl)c1)c1cc2c(s1)-c1ccccc1SC2`, the “activation” value is inactive: -1.76%.
In the case of `O=C(Cn1c(=O)n(-c2ccc(Cl)cc2)c(=O)c2c3c(sc21)CCCCC3)Nc1cccc(Cl)c1`, the “activation” value was inactive: -12.3%.
With `Cc1ccc2cccc(NC(=O)c3cccc4c(Br)cccc34)c2n1` the figure was inactive: -10.3%; with `CCCn1cc(S(=O)(=O)c2ccc(C)c(C)c2)c(=O)c2cc(F)c(N3CCC(C)CC3)cc21`, inactive: -10.3%; with `CCn1c(=O)n(-c2ccc3c(c2)OCO3)c2nc(-c3cccc(OC)c3OC)nc(C(N)=O)c21`, inactive: -6.01%.
The result for `COc1ccc(N2CCN(C(=O)c3ccc4c(c3)N(Cc3cccc(Cl)c3)C(=O)c3ccccc3S4(=O)=O)CC2)cc1` reads inactive: -14.4%; that for `Cc1cc(C)c2nc(N3CCCC(C(=O)NCc4ccccc4F)C3)sc2c1` (configuration not stated), inactive: -14%; that for `CCOC(=O)CC(NC(=O)c1cc2c(=O)n3cccc(C)c3nc2s1)c1ccc(OCC)c(OC)c1` (configuration not stated), inactive: -7.4%.
With `CCc1ccccc1NC(=O)Cn1c(=O)n(-c2cccc(C)c2)c(=O)c2c1c1cc(OC)ccc1n2C` the figure was inactive: -9.8%; with `CC(C)OCCCNC(=O)Cc1ccc(NC(=O)N2CCCCc3ccccc32)cc1`, inactive: -10.9%.
As for `CCOc1ccccc1N(C)C(=O)c1cc2c(s1)-c1ccccc1OC2`, the “activation” value was inactive: -15.4%.
The result for `COc1cccc(NC(=O)C2CCN(S(=O)(=O)c3c(C)noc3C)CC2)c1` reads inactive: -11%; that for `Cc1ccc(C(=O)COC(=O)c2cc(-c3cccs3)nc3ccccc23)cc1`, inactive: -5.62%; that for `CCc1cccc(NC(=O)Nc2cn(C)c(=O)c3ccccc23)c1`, inactive: -13.7%.
With `Cc1ccc(S(=O)(=O)c2cn(CC(=O)Nc3ccc(F)cc3)c3cc4c(cc3c2=O)OCO4)cc1` the figure was inactive: -12.1%.
The result for `COc1ccc(-c2noc(CCC(=O)Nc3cccc(C)c3C)n2)cc1OC` reads inactive: -17.2%; that for `Cc1ccc(NC(=O)Cn2c(=O)n(CC(=O)NCCc3ccccc3)c(=O)c3ccccc32)cc1C`, inactive: -13.9%.
As to `CCCCc1nc(SCC(=O)Nc2ccc(S(N)(=O)=O)cc2)n[nH]1`, the “activation” value was inactive: -3.11%.
On to `Cc1nn2c(C)c(C(=O)NCc3ccc(OC(C)C)cc3)cnc2c1-c1ccc(F)cc1`, for which the “activation” value is inactive: -16.5%.
The result for `COc1ccc(Cn2ccnc2SCC(=O)Nc2nnc(C)s2)cc1` reads inactive: -10.5%; that for `COC(=O)c1ccc(NC(=O)CN(C)S(=O)(=O)c2ccc(Br)s2)cc1`, inactive: -1.78%; that for `Cc1ccc2nc(-c3ccc(Cl)s3)c(Nc3ccc4c(c3)OCCO4)n2c1`, inactive: -31.2%.
With `COc1cccc(-n2c(SCc3ccc(F)cc3)nc3c([nH]c4ccccc43)c2=O)c1` the figure was inactive: -33.9%.
The result for `CC(=O)c1c(C)oc2c1cc(NS(=O)(=O)c1ccc(C(C)(C)C)cc1)c1ccccc12` reads inactive: -3.81%; that for `COc1ccc(NC(=O)Cn2c(=O)c3ccccc3n3nncc23)c(OC)c1`, inactive: -14.3%.
With `Cc1cc(C)c(NC(=O)Cn2c(=O)n(Cc3ccc(C(=O)NCc4ccc5c(c4)OCO5)cc3)c(=O)c3ccccc32)c(C)c1`, the “activation” value was inactive: -3.14%.
The result for `Cc1ccc(CNC(=O)C(C)n2nc(C)c3sc4ccccc4c3c2=O)cc1` (configuration not stated) reads inactive: -14.2%.
On to `CCN(CCCNC(=O)c1nn(-c2ccc(C)cc2)c(=O)c2c1c1ccccc1n2C)c1cccc(C)c1`, for which the “activation” value is inactive: -16.3%.
For the molecule `Cc1ccc(CNC(=O)c2ccc(N3CCCC3)c(NC(=O)Nc3ccc(F)c(Cl)c3)c2)cc1`, the “activation” value is inactive: -9.36%.
Regarding `Cc1ccc2c(c1)-c1c(c(C(=O)N3CCN(c4cc(C)ccc4C)CC3)nn1C)CS2`, the “activation” value was inactive: -13.2%.
With `O=C(O)Cn1c(C(=O)Nc2nc(-c3ccccc3Cl)cs2)cc2ccccc21` the figure was inactive: -18.8%; with `COc1cccc(CNC(=O)CN2C(=O)COc3ccc(S(=O)(=O)N4CCOCC4)cc32)c1`, inactive: -14.1%.
With `CCn1c(=O)cc(OCC(=O)N2CCN(c3cccc(C)c3C)CC2)c2ccccc21` the figure was inactive: -9.06%; with `Cc1cccc(NC(=O)CN2C(=O)C(c3ccc(F)cc3)=NC23CCCCCC3)c1`, inactive: -12.3%; with `CC(C)Cc1nn2c(=O)cc(COC(=O)c3ccc(NC(=O)C4CCCCC4)cc3)nc2s1`, inactive: -8.62%.
As to `COc1cccc(C(=O)Oc2c(Sc3ccc(C)cc3)c(C)nn2C(C)(C)C)c1OC`, the “activation” value was inactive: -8.08%.
For the molecule `COc1ccc(NC(=O)c2cc(S(=O)(=O)N3CCCC3)ccc2OC)cc1`, the “activation” value is inactive: -1.95%.
With `Cc1cccc(C)c1NC(=O)c1ccccc1C(=O)O` the figure was inactive: -11.8%; with `COc1ccc(Nc2nc3ccc(Cl)cc3nc2-n2nc(C)cc2C)cc1`, inactive: -4.69%.
With `CCOc1ccc(C(=O)NCC(c2cccs2)S(=O)(=O)c2ccccc2)cc1` (configuration not stated) the figure was inactive: -7.93%.
With `CCOc1ccc(C(=O)NCCSc2c(C)[nH]c3ccccc23)cc1OCC` the figure was inactive: -16.6%.
As to `Cc1cccc(C(=O)N2CCc3cc(CNC(=O)CSc4ccccc4)ccc32)c1`, the “activation” value is inactive: -10.7%.
